The source of these data is publication PMC12820563.

This is one part of the list. The list includes weakly bound sequences.

This test has as its target T1, MBP-FoxP3dN (UniProt Q99JB6).
T1 sequence: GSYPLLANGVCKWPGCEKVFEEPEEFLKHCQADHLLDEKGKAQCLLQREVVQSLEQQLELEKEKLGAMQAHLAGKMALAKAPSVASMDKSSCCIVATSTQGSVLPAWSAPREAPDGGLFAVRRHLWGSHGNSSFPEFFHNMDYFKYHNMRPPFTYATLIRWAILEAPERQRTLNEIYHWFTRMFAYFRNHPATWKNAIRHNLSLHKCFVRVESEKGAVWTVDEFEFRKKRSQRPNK
The test can be described thus: PD-seq (MBP pull-down with sequencing). To be noted: 20 mM Tris-HCl pH 7.5, 100 mM NaCl, 1.5 mM MgCl2, 0.4 uM protein, 0.1 uM dsDNA library, 30 min, room temperature, amylose pull-down; high values mean tight binding; double strand, one strand shown.
As for “GATGATTGTTCTCCCAGCTGATGAATTACAACCCTCGAGTAAACAAATTTTCCTAATCTTTCTGTTCAAGCGCCATCTAC”, the binding signal (RPM ratio (pull-down/input)) was determined as 0.475.
Take “GATGATTGTTCTCCCAGCTGATGAATTTCTACTGTCGAGTAAACAAATTTTCCTAATCTTTCTGTTCAAGCGCCATCTAC”: the binding signal (RPM ratio (pull-down/input)) amounted to 0.236.
The result for “GATGATTGTTCTCCCAGCTGATGAATTTTGCCACTCGAGTAAACAAATTTTCCTAATCTTTCTGTTCAAGCGCCATCTAC” reads 5.96; that for “GATGATTGTTCTCCCAGCTGATGAATTCCCTAGATCGAGTAAACAAATTTTCCTAATCTTTCTGTTCAAGCGCCATCTAC”, 0.184.
As to “GATGATTGTTCTCCCAGCTGATGAATTCCCCACGTCGAGTAAACAAATTTTCCTAATCTTTCTGTTCAAGCGCCATCTAC”, the binding signal (RPM ratio (pull-down/input)) stood at 0.249.
Consider “GATGATTGTTCTCCCAGCTGATGAATTATAAGGCTCGAGTAAACAAATTTTCCTAATCTTTCTGTTCAAGCGCCATCTAC”, for which the binding signal (RPM ratio (pull-down/input)) is 0.361.
For “GATGATTGTTCTCCCAGCTGATGAATTATCGTCGTCGAGTAAACAAATTTTCCTAATCTTTCTGTTCAAGCGCCATCTAC”, the binding signal (RPM ratio (pull-down/input)) is 0.436.
Then “GATGATTGTTCTCCCAGCTGATGAATTAAAGTTGTCGAGTAAACAAATTTTCCTAATCTTTCTGTTCAAGCGCCATCTAC”, with 0.736; and “GATGATTGTTCTCCCAGCTGATGAATTGACTTGTTCGAGTAAACAAATTTTCCTAATCTTTCTGTTCAAGCGCCATCTAC”, with 0.934; and “GATGATTGTTCTCCCAGCTGATGAATTGAGTGGATCGAGTAAACAAATTTTCCTAATCTTTCTGTTCAAGCGCCATCTAC”, with 0.529.
For the sequence “GATGATTGTTCTCCCAGCTGATGAATTAAGGTCGTCGAGTAAACAAATTTTCCTAATCTTTCTGTTCAAGCGCCATCTAC”, the binding signal (RPM ratio (pull-down/input)) worked out at 0.43.
“GATGATTGTTCTCCCAGCTGATGAATTCATAACTTCGAGTAAACAAATTTTCCTAATCTTTCTGTTCAAGCGCCATCTAC”: the binding signal (RPM ratio (pull-down/input)) came out at 0.471.
“GATGATTGTTCTCCCAGCTGATGAATTAACAGTCTCGAGTAAACAAATTTTCCTAATCTTTCTGTTCAAGCGCCATCTAC”: the binding signal (RPM ratio (pull-down/input)) worked out at 0.421.
Then “GATGATTGTTCTCCCAGCTGATGAATTCTATTGGTCGAGTAAACAAATTTTCCTAATCTTTCTGTTCAAGCGCCATCTAC”, with 3.87; and “GATGATTGTTCTCCCAGCTGATGAATTACCTTGATCGAGTAAACAAATTTTCCTAATCTTTCTGTTCAAGCGCCATCTAC”, with 0.28; and “GATGATTGTTCTCCCAGCTGATGAATTATAATAGTCGAGTAAACAAATTTTCCTAATCTTTCTGTTCAAGCGCCATCTAC”, with 0.705.
Turning to “GATGATTGTTCTCCCAGCTGATGAATTGAACGTTTCGAGTAAACAAATTTTCCTAATCTTTCTGTTCAAGCGCCATCTAC”, the binding signal (RPM ratio (pull-down/input)) was 0.428.
Consider “GATGATTGTTCTCCCAGCTGATGAATTAAGATCATCGAGTAAACAAATTTTCCTAATCTTTCTGTTCAAGCGCCATCTAC”, for which the binding signal (RPM ratio (pull-down/input)) is 0.368.
The result for “GATGATTGTTCTCCCAGCTGATGAATTACTATTTTCGAGTAAACAAATTTTCCTAATCTTTCTGTTCAAGCGCCATCTAC” reads 0.582; that for “GATGATTGTTCTCCCAGCTGATGAATTCTGTTGTTCGAGTAAACAAATTTTCCTAATCTTTCTGTTCAAGCGCCATCTAC”, 7.51; that for “GATGATTGTTCTCCCAGCTGATGAATTACCGCGCTCGAGTAAACAAATTTTCCTAATCTTTCTGTTCAAGCGCCATCTAC”, 0.468.
Then “GATGATTGTTCTCCCAGCTGATGAATTGTCATCGTCGAGTAAACAAATTTTCCTAATCTTTCTGTTCAAGCGCCATCTAC”, with 0.718; and “GATGATTGTTCTCCCAGCTGATGAATTCTGACATTCGAGTAAACAAATTTTCCTAATCTTTCTGTTCAAGCGCCATCTAC”, with 1.56.
Then “GATGATTGTTCTCCCAGCTGATGAATTTCCGTGATCGAGTAAACAAATTTTCCTAATCTTTCTGTTCAAGCGCCATCTAC”, with 0.36; and “GATGATTGTTCTCCCAGCTGATGAATTGTTTTGTTCGAGTAAACAAATTTTCCTAATCTTTCTGTTCAAGCGCCATCTAC”, with 4.09.
“GATGATTGTTCTCCCAGCTGATGAATTATTGTTCTCGAGTAAACAAATTTTCCTAATCTTTCTGTTCAAGCGCCATCTAC”: the binding signal (RPM ratio (pull-down/input)) is 2.25.
Then “GATGATTGTTCTCCCAGCTGATGAATTACGCCCTTCGAGTAAACAAATTTTCCTAATCTTTCTGTTCAAGCGCCATCTAC”, with 1.36.
For “GATGATTGTTCTCCCAGCTGATGAATTTCAGCCCTCGAGTAAACAAATTTTCCTAATCTTTCTGTTCAAGCGCCATCTAC”, the binding signal (RPM ratio (pull-down/input)) stood at 0.402.
Turning to “GATGATTGTTCTCCCAGCTGATGAATTAGTGACTTCGAGTAAACAAATTTTCCTAATCTTTCTGTTCAAGCGCCATCTAC”, the binding signal (RPM ratio (pull-down/input)) was determined as 0.834.
The result for “GATGATTGTTCTCCCAGCTGATGAATTCATTGGGTCGAGTAAACAAATTTTCCTAATCTTTCTGTTCAAGCGCCATCTAC” reads 1.26; that for “GATGATTGTTCTCCCAGCTGATGAATTACGATGGTCGAGTAAACAAATTTTCCTAATCTTTCTGTTCAAGCGCCATCTAC”, 0.684.
